PubChem BioAssay AID1345082 (National Center for Advancing Translational Sciences (NCATS), 2018)
Among all 94,000 compounds or so, about 4,000 (4.3%) were called active. The inconclusive results got no clear call from the source; some entries with a clear call stand among them for comparison. The call rests on the fitted dose curve; in most records, active means well fitted inhibition curve with a large enough effect; inconclusive means small, poorly fitted or top-dose-only effect; inactive means no such curve, though single readings can be large or run the other way. Potencies of inconclusive entries are doubtful fits and often do not repeat.
Potency means the concentration at half of the fitted maximal effect; tags describe the fitted curve by direction and shape.

Test: Cytotoxic Profiling in NIH 3T3 Cell Line of Diverse Libraries Using Quantitative High-Throughput Screening; further: nearly all actives have a fitted effect of over 55% in size
Conditions: NIH 3T3 viability, CellTiter-Glo ATP luminescence, 48-72 h; series mostly up to 96.7 µM
Outline: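 ATP-dependent luminescence (CellTiter-Glo) served as the viability signal for NIH 3T3 cells treated with compound for 48 or 72 hr at 37 °C.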
In the case of `CCCNC(=O)N1[C@H]2CC[C@@H]1c1cnc(-c3ccccc3)nc1C2`, the Potency is reported as inconclusive: 17.8 µM [inhibitor, full curve, poor fit].
For `COc1ccc(-c2cc([C@H]3CN4CC[C@H]3C[C@@H]4CNC(=O)c3ccc(C(C)(C)C)cc3)n(C)n2)cc1OC`, the Potency was inconclusive: 22.4 µM [inhibitor, full curve, poor fit].
For `Cc1nc(-c2cccs2)cc([C@H]2CN3CC[C@H]2C[C@@H]3COC(=O)NC2CCCCC2)n1`, the Potency was active: 44.7 µM.
For `COc1ccc(-c2cn(C[C@H]3CC4CCN3C[C@@H]4C(=O)NCc3ccccc3OC)nn2)cc1` (some centres undefined), the Potency was inconclusive: 89.1 µM [inhibitor, partial curve, poor fit].
With `COc1ccc([C@@H]2CN(C(=O)Nc3ccc(C)cc3)[C@@H]3C4CCN(CC4)[C@@H]32)cc1` the Potency was inconclusive: 50.1 µM [inhibitor, partial curve, poor fit].
For `COc1ccc(S(=O)(=O)NC[C@H]2C[C@@H]3CCN2C[C@@H]3CN2CCCCC2)cc1`, the Potency was active: 100 µM.
In the case of `O=C1Nc2ccccc2C12CN(Cc1cccnc1)C2`, the Potency is reported as inconclusive: 79.4 µM [inhibitor, partial curve, poor fit].
In the case of `CCC(CC)c1cc([C@H]2CN3CC[C@H]2C[C@@H]3CNC(=O)C(C)(C)C)nc(-c2ccncc2)n1`, the Potency is reported as inconclusive: 79.4 µM [inhibitor, partial curve, poor fit].
In the case of `C=C[C@H]1CN2CC[C@H]1C[C@@H]2CNC(=O)Nc1ccc(C(C)(C)C)cc1`, the Potency is reported as active: 35.5 µM.
For `O=C1CC2CCN(Cc3cscn3)CC2CCN1` (centres undefined), the Potency was inconclusive: 112 µM [inhibitor, single point].
For `CCOC(=O)[C@H]1CN(C(=O)NC2CCCC2)[C@]2(C)C(=O)Nc3ccccc3[C@H]12`, the Potency was inconclusive: 28.2 µM [inhibitor, partial curve, poor fit].
For `Cc1nc(-c2ccc(C(F)(F)F)cc2)cc([C@H]2CN3CC[C@H]2C[C@@H]3CNS(C)(=O)=O)n1`, the Potency was active: 39.8 µM.
For `O=C(NC1CCCCC1)[C@H]1CN2CCC1C[C@@H]2Cn1cc(CSc2ccccc2)nn1` (some centres undefined), the Potency was inconclusive: 50.1 µM [inhibitor, partial curve, poor fit].
With `CC[C@H]1CN2CC[C@H]1C[C@@H]2CNC(=O)c1ccc(-c2ccccc2)cc1` the Potency was inconclusive: 100 µM [inhibitor, partial curve, poor fit].
With `C=C[C@H]1CN2CC[C@H]1C[C@@H]2CNC(=O)c1ccc(-c2ccccc2)cc1` the Potency was inconclusive: 126 µM [inhibitor, single point].
With `CN1CCC(N2C[C@@H]3C[C@H](C2)c2c(NC(=O)NC4CCCCC4)ccc(=O)n2C3)CC1` the Potency was inconclusive: 100 µM [inhibitor, partial curve, poor fit].
With `CCCNC(=O)N1CC2CN(C(C)C)CC(C1)O2` the Potency was “inactive”.
In the case of `Cc1nc(-c2ccccc2Br)cc([C@H]2CN3CC[C@H]2C[C@@H]3CNC(=O)c2ccc(C(C)(C)C)cc2)n1`, the Potency is reported as active: 25.1 µM.
For `O=C(Cc1ccc(F)cc1Cl)N1C[C@H]2CC[C@@H]1CN(Cc1cccnc1)C2`, the Potency was “inactive”.
In the case of `CC(C)(C)c1ccc(NC(=O)OC[C@H]2C[C@@H]3CCN2C[C@@H]3c2cc(C3CCCC3)nc(-c3ccncc3)n2)cc1`, the Potency is reported as active: 20 µM.
With `O=C(NC1CCCCC1)N1C[C@@H]2C[C@H](C1)c1c(-c3ccccc3F)ccc(=O)n1C2` the Potency was inconclusive: 126 µM [inhibitor, single point].
In the case of `O=[N+]([O-])c1cnc(N2CC3CCC(C2)N3CC(F)(F)F)nc1`, the Potency is reported as “inactive”.
In the case of `CCCNC(=O)N1[C@H]2CC[C@@H]1c1cnc(-c3ccc(F)cc3)nc1C2`, the Potency is reported as inconclusive: 7.94 µM [inhibitor, full curve, poor fit].
For `COc1cc2c(cc1Oc1ccccc1)NC(=O)C21CCN(C(=O)C2CCN(C)CC2)CC1`, the Potency was inconclusive: 50.1 µM [inhibitor, partial curve, poor fit].
With `Cc1ncc2c(n1)C[C@@H]1CC[C@H]2N1C(=O)c1ccoc1` the Potency was “inactive”.
In the case of `COc1ccc(-c2cc([C@H]3CN4CC[C@H]3C[C@@H]4CNC(=O)Nc3cccc4ccccc34)n(C)n2)cc1OC`, the Potency is reported as inconclusive: 89.1 µM [inhibitor, single point].
For `O=C1Nc2ccccc2C12CCN(Cc1cccnc1)C2` (centres undefined), the Potency was “inactive”.
For `O=[S+]1([O-])NC2(CCN(Cc3cccnc3)C2)CNc2ccccc21` (centres undefined), the Potency was “inactive”.
In the case of `COc1ccc(NC(=O)NC[C@H]2C[C@@H]3CCN2C[C@@H]3c2cc(-c3ccccc3Br)nc(C)n2)cc1`, the Potency is reported as inconclusive: 79.4 µM [inhibitor, partial curve].
With `CCC(CC)c1cc([C@H]2CN3CC[C@H]2C[C@@H]3CNC(C)=O)nc(-c2ccncc2)n1` the Potency was active: 44.7 µM.
In the case of `COc1cc2c(cc1Oc1cccc(N(C)C)c1)NC(=O)C21CCN(Cc2ccccn2)CC1`, the Potency is reported as inconclusive: 50.1 µM [inhibitor, partial curve, poor fit].
For `CCOC(=O)[C@H]1CN(C(=O)OCC(C)(C)C)[C@]2(C)C(=O)N(CC3CC3)c3ccccc3[C@H]12`, the Potency was inconclusive: 28.2 µM [inhibitor, partial curve, poor fit].
With `Cn1nc(C2CCCCC2)cc1[C@H]1CN2CC[C@H]1C[C@@H]2CO` the Potency was inconclusive: 126 µM [inhibitor, single point].
In the case of `Cn1nc(-c2ccc3ccccc3c2)cc1[C@H]1CN2CC[C@H]1C[C@@H]2CNC(=O)c1ccco1`, the Potency is reported as inconclusive: 56.2 µM [inhibitor, partial curve, poor fit].
With `COc1ccc(C(=O)NC[C@H]2C[C@@H]3CCN2C[C@@H]3c2cc(-c3ccc(F)cc3)nn2C)cc1` the Potency was inconclusive: 56.2 µM [inhibitor, partial curve, poor fit].
In the case of `CC(C)(C)c1ccc(-c2cn(C[C@H]3CC4CCN3C[C@@H]4C(=O)NC3CCCCC3)nn2)cc1` (some centres undefined), the Potency is reported as inconclusive: 50.1 µM [inhibitor, partial curve, poor fit].
For `CCOC(=O)[C@H]1CN(C(=O)C2CCCC2)[C@]2(C)C(=O)N(CC3CC3)c3ccccc3[C@H]12`, the Potency was inconclusive: 31.6 µM [inhibitor, partial curve, poor fit].
In the case of `c1cnc2c(c1)NC1(CCCNC1)C(=NC1CCCC1)N2` (centres undefined), the Potency is reported as inconclusive: 56.2 µM [inhibitor, partial curve, poor fit].
With `CS(=O)(=O)N1C[C@@H]2C[C@H](C1)c1ccc(NC(=O)c3ccncc3)c(=O)n1C2` the Potency was inconclusive: 63.1 µM [inhibitor, full curve].
With `O=C(NC1CC1)[C@H]1CN2CC[C@H]1C[C@@H]2Cn1cc(-c2ccc(-c3ccccc3)cc2)nn1` the Potency was inconclusive: 100 µM [inhibitor, partial curve, poor fit].
For `CN1Cc2ccccc2-n2ccnc2C12CCN(C(=O)C1CCC1)CC2`, the Potency was “inactive”.
In the case of `Cc1cc(CN2CCC3(CC2)C(=O)Nc2ccccc23)no1`, the Potency is reported as “inactive”.
With `C=CCN(C)C(=O)[C@H]1CN2CCC1C[C@@H]2Cn1cc(-c2ccc(C(C)(C)C)cc2)nn1` (some centres undefined) the Potency was inconclusive: 50.1 µM [inhibitor, full curve, poor fit].
With `CSc1ccc(-c2ccc(=O)n3c2[C@@H]2C[C@@H](CN(S(=O)(=O)c4cccs4)C2)C3)cc1` the Potency was “inactive”.
For `O=C(c1cccs1)N1[C@H]2CC[C@@H]1c1cnc(-c3ccc(F)cc3)nc1C2`, the Potency was inconclusive: 7.94 µM [inhibitor, full curve, poor fit].
In the case of `COC1CN(c2ccc(C)cc2)C12CCNCC2` (centres undefined), the Potency is reported as inconclusive: 50.1 µM [inhibitor, partial curve, poor fit].
With `COCC(=O)NC[C@H]1C[C@@H]2CCN1C[C@@H]2CN1CCCC1` the Potency was “inactive”.
With `O=C1CO[C@H]2CN(Cc3ncc[nH]3)C[C@H]2N1Cc1ccccn1` the Potency was “inactive”.
With `O=c1ccc(-c2ccc(Cl)cc2)c2n1C[C@H]1C[C@@H]2CN(S(=O)(=O)c2cccs2)C1` the Potency was inconclusive: 89.1 µM [inhibitor, single point].
For `CCc1cnc(N2CCC3(CC2)C(=O)Nc2cc(Oc4ccccc4)c(OC)cc23)nc1`, the Potency was active: 39.8 µM.
In the case of `CSc1cccc(NC(=O)NC[C@H]2C[C@@H]3CCN2C[C@@H]3CN2CCSCC2)c1`, the Potency is reported as active: 100 µM.
In the case of `COc1ccccc1C(=O)N1[C@H]2CC[C@@H]1c1cnc(-c3ccccc3)nc1C2`, the Potency is reported as inconclusive: 11.2 µM [inhibitor, full curve, poor fit].
For `COc1cc2c(cc1Oc1ccccc1)NC(=O)C21CCN(C(=O)c2cccnc2)CC1`, the Potency was inconclusive: 50.1 µM [inhibitor, partial curve].
With `O=C(NCc1ccc(F)cc1)[C@H]1CN2CCC1C[C@@H]2Cn1cc(CSc2ccccc2)nn1` (some centres undefined) the Potency was inconclusive: 56.2 µM [inhibitor, partial curve, poor fit].
For `O=C(NC[C@H]1C[C@@H]2CCN1C[C@@H]2CN1CCCCC1)c1ccc(C(F)(F)F)cc1`, the Potency was inconclusive: 112 µM [inhibitor, partial curve, poor fit].
In the case of `c1ccc(-c2ncc3c(n2)C[C@@H]2CC[C@H]3N2)cc1`, the Potency is reported as “inactive”.
With `COc1ccccc1-c1cc([C@H]2CN3CC[C@H]2C[C@@H]3CNC(C)=O)n(C)n1` the Potency was “inactive”.
With `O=C(Cc1ccccc1)N1CCC(C(=O)O)(c2ccccc2)CC1` the Potency was inconclusive: 89.1 µM [inhibitor, single point].
With `COc1ccc(-c2cc([C@H]3CN4CC[C@H]3C[C@@H]4CNC(C)=O)n(C)n2)cc1` the Potency was inconclusive: 126 µM [inhibitor, single point].
